Measurements from a collection of fitness landscapes (doi:10.1126/science.1257360).
This is one part of the list.

B1: PhoQ; a variant is named by its letters at X, in order, P23837 (parent)
chain: MKKLLRLFFPLSLRVRFLLATAAVVLVLSLAYGMVALIGYSVSFDKTTFRLLRGESNLFYTLAKWENNKLHVELPENIDKQSPTMTLIYDENGQLLWAQRDVPWLMKMIQPDWLKSNGFHEIEADVNDTSLLLSGDHSIQQQLQEVREDDDDAEMTHSVAVNVYPATSRMPKLTIVVVDTIPVELKSSYMVWSWFIYVLSANLLLVIPLLWVAAWWSLRPIEALAKEVRELEEHNRELLNPATTRELTSLVRNLNRLLKSERERYDKYRTTLTDLTHSLKTPLXXLQXXLRSLRSEKMSVSDAEPVMLEQISRISQQIGYYLHRASMRGGTLLSRELHPVAPLLDNLTSALNKVYQRKGVNISLDISPEISFVGEQNDFVEVMGNVLDNACKYCLEFVEISARQTDEHLYIVVEDDGPGIPLSKREVIFDRGQRVDTLRPGQGVGLAVAREITEQYEGKIVAGESMLGGARMEVIFGRQHSAPKDE

Variants of: B1
Assay: enrichment ratio after two sorts for PhoP signalling (ratio (wild type AVST 3.29)); higher = more functional
Conditions: with PhoP (E. coli)
With RGYQ the enrichment ratio was ≤ 0.25.
In the case of WRTN, the enrichment ratio is reported as ≤ 0.25.
In the case of QFSA, the enrichment ratio is reported as ≤ 0.25.
With EVHN the enrichment ratio was ≤ 0.25.
DEFR was tested, and the enrichment ratio was ≤ 0.25.
LLKH was tested, and the enrichment ratio was ≤ 0.25.
In the case of IYND, the enrichment ratio is reported as ≤ 0.25.
PWWI was tested, and the enrichment ratio was ≤ 0.25.
For RMKR, the enrichment ratio was ≤ 0.25.
AFLM was tested, and the enrichment ratio was 4.13.
With AKFC the enrichment ratio was ≤ 0.25.
In the case of ILSD, the enrichment ratio is reported as ≤ 0.25.
In the case of VNWR, the enrichment ratio is reported as ≤ 0.25.
MTLA was tested, and the enrichment ratio was 2.93.
Variant GIVF has an enrichment ratio of 5.84.
In the case of SDPL, the enrichment ratio is reported as ≤ 0.25.
For ERKI, the enrichment ratio was ≤ 0.25.
In the case of NNSY, the enrichment ratio is reported as ≤ 0.25.
In the case of QVGS, the enrichment ratio is reported as ≤ 0.25.
In the case of KKIA, the enrichment ratio is reported as ≤ 0.25.
With VVVM the enrichment ratio was ≤ 0.25.
For NTTI, the enrichment ratio was ≤ 0.25.
LGTT was tested, and the enrichment ratio was ≤ 0.25.
For WECP, the enrichment ratio was ≤ 0.25.
QMLG was tested, and the enrichment ratio was ≤ 0.25.
In the case of WADY, the enrichment ratio is reported as ≤ 0.25.
In the case of GPNI, the enrichment ratio is reported as ≤ 0.25.
RMNG was tested, and the enrichment ratio was ≤ 0.25.
For AELF, the enrichment ratio was 16.2.
MMHM was tested, and the enrichment ratio was ≤ 0.25.
Work on LKFL yielded an enrichment ratio of 0.481.
For KITT, the enrichment ratio was ≤ 0.25.
In the case of TEDL, the enrichment ratio is reported as ≤ 0.25.
REPF was tested, and the enrichment ratio was ≤ 0.25.
In the case of TKHQ, the enrichment ratio is reported as ≤ 0.25.
For WDLM, the enrichment ratio was ≤ 0.25.
With RTMI the enrichment ratio was ≤ 0.25.
For IYGF, the enrichment ratio was ≤ 0.25.
With LVGL the enrichment ratio was ≤ 0.25.
SKRM was tested, and the enrichment ratio was ≤ 0.25.
For FKFE, the enrichment ratio was ≤ 0.25.
FSPC was tested, and the enrichment ratio was ≤ 0.25.
SDVN was tested, and the enrichment ratio was ≤ 0.25.
In the case of LYNH, the enrichment ratio is reported as ≤ 0.25.
TCVD was tested, and the enrichment ratio was ≤ 0.25.
In the case of THMI, the enrichment ratio is reported as 26.1.
For EFGP, the enrichment ratio was ≤ 0.25.
In the case of REYN, the enrichment ratio is reported as ≤ 0.25.
For KMFG, the enrichment ratio was ≤ 0.25.
For YPNQ, the enrichment ratio was ≤ 0.25.
With VTVT the enrichment ratio was ≤ 0.25.
With IDIK the enrichment ratio was ≤ 0.25.
In the case of QCGY, the enrichment ratio is reported as ≤ 0.25.
In the case of ELTF, the enrichment ratio is reported as ≤ 0.25.
For VLLP, the enrichment ratio was ≤ 0.25.
AEFM was tested, and the enrichment ratio was 5.63.
In the case of ATWD, the enrichment ratio is reported as ≤ 0.25.
With VEGQ the enrichment ratio was ≤ 0.25.
With DNTH the enrichment ratio was ≤ 0.25.
Variant MALG has an enrichment ratio of 7.23.
DTSP was tested, and the enrichment ratio was ≤ 0.25.
For MVVH, the enrichment ratio was ≤ 0.25.
In the case of VHRM, the enrichment ratio is reported as ≤ 0.25.
In the case of LEKG, the enrichment ratio is reported as ≤ 0.25.
EGMP was tested, and the enrichment ratio was ≤ 0.25.
For TERQ, the enrichment ratio was ≤ 0.25.
YCFQ was tested, and the enrichment ratio was ≤ 0.25.
With HDIM the enrichment ratio was ≤ 0.25.
For FYIF, the enrichment ratio was ≤ 0.25.
For VAND, the enrichment ratio was ≤ 0.25.
IYYI was tested, and the enrichment ratio was ≤ 0.25.
For YLPT, the enrichment ratio was ≤ 0.25.
In the case of TLFF, the enrichment ratio is reported as ≤ 0.25.
For YTAL, the enrichment ratio was ≤ 0.25.
In the case of YEND, the enrichment ratio is reported as ≤ 0.25.
With YDFL the enrichment ratio was ≤ 0.25.
For MPPT, the enrichment ratio was ≤ 0.25.
KPFG was tested, and the enrichment ratio was ≤ 0.25.
In the case of RAFQ, the enrichment ratio is reported as ≤ 0.25.
In the case of QPGY, the enrichment ratio is reported as ≤ 0.25.
In the case of LTVV, the enrichment ratio is reported as ≤ 0.25.
In the case of STDP, the enrichment ratio is reported as ≤ 0.25.
GIST was tested, and the enrichment ratio was 8.78.
For YRGT, the enrichment ratio was ≤ 0.25.
For SATK, the enrichment ratio was ≤ 0.25.
PKSP was tested, and the enrichment ratio was ≤ 0.25.
With DKPK the enrichment ratio was ≤ 0.25.
In the case of DHES, the enrichment ratio is reported as ≤ 0.25.
EMYD was tested, and the enrichment ratio was ≤ 0.25.
FAPP was tested, and the enrichment ratio was ≤ 0.25.
With KSTV the enrichment ratio was ≤ 0.25.
In the case of DRPR, the enrichment ratio is reported as ≤ 0.25.
FPSN was tested, and the enrichment ratio was ≤ 0.25.
With YRQT the enrichment ratio was ≤ 0.25.
Variant VKAE has an enrichment ratio of 1.52.
With MVDL the enrichment ratio was ≤ 0.25.
YTHN was tested, and the enrichment ratio was ≤ 0.25.
TYPT was tested, and the enrichment ratio was ≤ 0.25.
With GKDT the enrichment ratio was ≤ 0.25.
For VQRP, the enrichment ratio was ≤ 0.25.
In the case of EKMH, the enrichment ratio is reported as ≤ 0.25.
With TYGF the enrichment ratio was ≤ 0.25.
In the case of RHSI, the enrichment ratio is reported as ≤ 0.25.
For MNFS, the enrichment ratio was ≤ 0.25.
For ILAW, the enrichment ratio was ≤ 0.25.
In the case of SPDP, the enrichment ratio is reported as ≤ 0.25.
With LAVY the enrichment ratio was ≤ 0.25.
For MVFI, the enrichment ratio was ≤ 0.25.
In the case of RSGE, the enrichment ratio is reported as ≤ 0.25.
With YWAK the enrichment ratio was ≤ 0.25.
With VAPY the enrichment ratio was ≤ 0.25.
NWFS was tested, and the enrichment ratio was ≤ 0.25.
With WQEL the enrichment ratio was ≤ 0.25.
For MYKW, the enrichment ratio was ≤ 0.25.
TTCS gave an enrichment ratio of 18.7.
WMMR was tested, and the enrichment ratio was ≤ 0.25.
With VEYH the enrichment ratio was ≤ 0.25.
FNAP was tested, and the enrichment ratio was ≤ 0.25.
For IVWG, the enrichment ratio was ≤ 0.25.
For NLCY, the enrichment ratio was ≤ 0.25.
In the case of HTSD, the enrichment ratio is reported as ≤ 0.25.
For TQRV, the enrichment ratio was ≤ 0.25.
MLCD was tested, and the enrichment ratio was ≤ 0.25.
MHFM was tested, and the enrichment ratio was ≤ 0.25.
For YLAS, the enrichment ratio was ≤ 0.25.
MIAS showed an enrichment ratio of 4.77.
For NAVG, the enrichment ratio was ≤ 0.25.
In the case of WGRV, the enrichment ratio is reported as ≤ 0.25.
VDFG was tested, and the enrichment ratio was ≤ 0.25.
In the case of MTKT, the enrichment ratio is reported as ≤ 0.25.
In the case of GDMI, the enrichment ratio is reported as 0.38.
GHLF was tested, and the enrichment ratio was ≤ 0.25.
PWHE was tested, and the enrichment ratio was ≤ 0.25.
HVWF was tested, and the enrichment ratio was ≤ 0.25.
With SEER the enrichment ratio was ≤ 0.25.
In the case of MIRN, the enrichment ratio is reported as ≤ 0.25.
In the case of HCCP, the enrichment ratio is reported as ≤ 0.25.
In the case of ANYA, the enrichment ratio is reported as ≤ 0.25.
DNWK was tested, and the enrichment ratio was ≤ 0.25.
For IFFY, the enrichment ratio was ≤ 0.25.
RSLW was tested, and the enrichment ratio was ≤ 0.25.
For SGPA, the enrichment ratio was ≤ 0.25.
With SHIW the enrichment ratio was ≤ 0.25.
VHND was tested, and the enrichment ratio was ≤ 0.25.
In the case of SKQM, the enrichment ratio is reported as 1.77.
SEWY was tested, and the enrichment ratio was ≤ 0.25.
In the case of DYIR, the enrichment ratio is reported as ≤ 0.25.
For DVYK, the enrichment ratio was ≤ 0.25.
ASWA was tested, and the enrichment ratio was ≤ 0.25.
For NTLG, the enrichment ratio was ≤ 0.25.
With VRFI the enrichment ratio was ≤ 0.25.
KHPQ was tested, and the enrichment ratio was ≤ 0.25.
For VCHE, the enrichment ratio was ≤ 0.25.
With SSKE the enrichment ratio was ≤ 0.25.
With QDRK the enrichment ratio was ≤ 0.25.
With KFVS the enrichment ratio was ≤ 0.25.
For LKLF, the enrichment ratio was ≤ 0.25.
With VRLW the enrichment ratio was ≤ 0.25.
For NDMV, the enrichment ratio was 1.88.
With VEAR the enrichment ratio was ≤ 0.25.
In the case of TLRG, the enrichment ratio is reported as ≤ 0.25.
With TLMD the enrichment ratio was ≤ 0.25.
With NWRV the enrichment ratio was ≤ 0.25.
In the case of QYNM, the enrichment ratio is reported as ≤ 0.25.
In the case of RGHR, the enrichment ratio is reported as ≤ 0.25.
With RDKV the enrichment ratio was ≤ 0.25.
For RKNC, the enrichment ratio was ≤ 0.25.
RWVA was tested, and the enrichment ratio was ≤ 0.25.
KYES was tested, and the enrichment ratio was ≤ 0.25.
For LQFW, the enrichment ratio was ≤ 0.25.
With RENS the enrichment ratio was ≤ 0.25.
In the case of HTDV, the enrichment ratio is reported as ≤ 0.25.
In the case of QKWN, the enrichment ratio is reported as ≤ 0.25.
In the case of HIWF, the enrichment ratio is reported as ≤ 0.25.
MSRC was tested, and the enrichment ratio was ≤ 0.25.
For CSFP, the enrichment ratio was ≤ 0.25.
PESD was tested, and the enrichment ratio was ≤ 0.25.
For FYSR, the enrichment ratio was ≤ 0.25.
For TWNA, the enrichment ratio was ≤ 0.25.
With LRKT the enrichment ratio was ≤ 0.25.
In the case of FNFL, the enrichment ratio is reported as ≤ 0.25.
For RLGI, the enrichment ratio was ≤ 0.25.
For SGNV, the enrichment ratio was 1.81.
In the case of FDHN, the enrichment ratio is reported as ≤ 0.25.
In the case of SGKQ, the enrichment ratio is reported as ≤ 0.25.
In the case of LYRN, the enrichment ratio is reported as ≤ 0.25.
In the case of LDQT, the enrichment ratio is reported as ≤ 0.25.
For ARIR, the enrichment ratio was ≤ 0.25.
QLHA was tested, and the enrichment ratio was ≤ 0.25.
TVLN was tested, and the enrichment ratio was ≤ 0.25.
For QARY, the enrichment ratio was ≤ 0.25.
SNHL was tested, and the enrichment ratio was ≤ 0.25.
With RATY the enrichment ratio was ≤ 0.25.
Work on ADLQ yielded an enrichment ratio of 3.02.
Work on SEYY yielded an enrichment ratio of 4.69.
